# Results taken from patent publication US6737241B2, “Methods for screening for transdominant intracellular effector peptides and RNA molecules” (Rigel Pharmaceuticals, Inc., priority 1996, dated 2004).
# Tested on: Jurkat EcoR cells
# Assay: IgM anti-Fas (CH-11) selection of retrovirus-transduced Jurkat cells
# Conditions: 10 ng/ml CH-11, 5 days, then 10 days after addition of RPMI/20% FCS
# Procedure: A sterile Acrodisc 0.45 micron syringe filter (Gelman Sciences) was attached to the end of a 10 ml sterile syringe and the injection stopper sterilely removed from the syringe barrel. At 48 hours post-transfection, the virus supernatant was removed from the Phoenix cells and added to the syringe barrel. The stopper was replaced and the virus supernatant was ejected dropwise into a clean, sterile conical tube. The Phoenix cell plates were set aside for X-Gal staining (see below). Polybrene was added to each viral supernatant (Sigma; 2.5 mg/ml in ddH20=500×; store at −20° C.) to a final concentration of 5 mg/ml. 4.5×10^6 Jurkat EcoR cells (Jurkat cells stably expressing the ecotropic retrovirus receptor) were pelleted for 1400 rpm for five min and resuspended in 9 mls of the OL-2 library virus supernatant. The cells were distributed in aliquots of 1 ml, or 5×10^5 cells, into the wells of a 24 well plate. 1.5×10^6 Jurkat EcoR cells were similarly treated with 3 mls each of the lacZ viral supernatant and the OL-1 viral supernatant. Each cell plate was wrapped in parafilm, placed in a microplate carrier (DuPont) and centrifuged at 2500 rpm for 90 min at 32° C. in a DuPont/Sorvall RT 6000B table top centrifuge. After centrifugation, the cells were observed under a microscope. […] The parafilm was removed from the plates, which were placed at 32° C. […]
sequence,measurement,value
MGKRKGDEVDGVGPP [OL-1],cell survival / live colonies after IgM anti-Fas treatment,nearly every well of the OL-1-transduced cells contained live colonies of cells
